# Experimental data: paper PMC4336329 (PLoS ONE, 2015)
# The whole screen tested about 310,000 compounds, of which about 2,200 (0.71%) showed an effect of 50% or more. Effects have a minus sign here. The list shows a part of the results.
# Target: human ether-à-go-go-related gene (hERG) potassium channel (human, UniProt Q12809)
# Assay: primary screen, population patch clamp on CHO cells stably expressing hERG
# Sequence of human ether-à-go-go-related gene (hERG) potassium channel (Q12809 whole entry, looked up): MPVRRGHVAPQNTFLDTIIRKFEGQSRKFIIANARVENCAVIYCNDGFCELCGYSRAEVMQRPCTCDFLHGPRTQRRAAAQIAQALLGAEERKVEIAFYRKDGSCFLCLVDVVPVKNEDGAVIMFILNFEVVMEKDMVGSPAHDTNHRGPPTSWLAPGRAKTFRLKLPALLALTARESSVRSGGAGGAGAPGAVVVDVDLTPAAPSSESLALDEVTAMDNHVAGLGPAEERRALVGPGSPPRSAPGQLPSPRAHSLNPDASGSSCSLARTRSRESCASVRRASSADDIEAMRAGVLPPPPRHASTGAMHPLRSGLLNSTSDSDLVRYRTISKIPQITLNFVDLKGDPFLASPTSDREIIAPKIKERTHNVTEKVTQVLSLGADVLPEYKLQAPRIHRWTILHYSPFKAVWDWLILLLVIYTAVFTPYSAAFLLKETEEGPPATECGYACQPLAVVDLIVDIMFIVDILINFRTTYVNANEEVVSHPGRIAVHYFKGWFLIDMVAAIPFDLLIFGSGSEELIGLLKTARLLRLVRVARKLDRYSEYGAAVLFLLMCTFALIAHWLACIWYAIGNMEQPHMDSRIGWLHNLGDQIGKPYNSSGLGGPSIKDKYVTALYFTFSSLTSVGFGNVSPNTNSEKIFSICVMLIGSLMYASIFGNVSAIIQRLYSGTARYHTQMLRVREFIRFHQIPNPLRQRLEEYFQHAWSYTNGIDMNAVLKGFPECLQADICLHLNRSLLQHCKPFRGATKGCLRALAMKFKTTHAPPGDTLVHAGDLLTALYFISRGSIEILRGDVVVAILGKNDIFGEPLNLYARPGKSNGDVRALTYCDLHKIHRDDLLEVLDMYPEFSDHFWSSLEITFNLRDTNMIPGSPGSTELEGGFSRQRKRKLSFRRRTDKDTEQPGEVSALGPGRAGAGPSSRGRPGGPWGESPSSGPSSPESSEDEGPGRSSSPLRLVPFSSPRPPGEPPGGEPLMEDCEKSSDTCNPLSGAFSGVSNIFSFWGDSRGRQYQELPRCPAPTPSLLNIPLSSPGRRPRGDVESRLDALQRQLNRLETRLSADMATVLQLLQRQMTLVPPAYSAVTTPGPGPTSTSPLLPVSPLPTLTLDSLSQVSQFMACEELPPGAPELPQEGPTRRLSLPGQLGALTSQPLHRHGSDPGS
row,SMILES,"hERG current change (%, negative = inhibition) at 1uM"
1,CCOC(=O)CNC(=O)c1ccc(C#CC2(O)CCCCC2)cc1,13.5%
2,CCN(C(=O)CSc1nc(C)nc2sc(C)c(C)c12)c1ccc(F)cc1,7.21%
3,CC(C)(C)C(=O)CNS(=O)(=O)c1ccc(S(=O)(=O)NC2CCCC2)cc1,7.1%
4,COc1ccc(NC(=S)NC(C)Cc2cccs2)cc1 (stereo not drawn),14.4%
5,O=C(c1ccccc1)c1nn(-c2ccccc2)c(=O)cc1C(F)(F)F,-3.08%
6,CN(C)CCCN(C(=O)c1ccc(S(=O)(=O)N2CCc3ccccc32)cc1)c1nc2ccc(Cl)cc2s1.Cl,13.7%
7,Cc1nc(NC(C)c2ccccc2)sc1C(=O)Nc1ccccc1 (stereo not drawn),8.64%
8,Cc1ccc(OCCNC(=O)CNC(=O)c2ccc3c(c2)OCO3)cc1,12.3%
9,Cc1ccc(-c2ccc(=O)[nH]n2)cc1,13.5%
10,Cc1nc(-c2ccccc2)nc2[nH]ccc(=O)c12,9.81%
11,N#CC(c1cccc(Cl)c1)c1ccc2c(C(F)(F)F)cc(C(F)(F)F)nc2n1 (stereo not drawn),6.85%
12,Cn1ccnc1COc1ccc(C=O)cc1,12%
13,O=C(NC1CCCCC1)N1CCN(CCc2ccccc2)CC1,7.82%
14,Cc1c(N=Cc2cc(Br)cc(Br)c2O)cccc1C(=O)O,14.8%
15,O=C(Cc1ccc(S(=O)(=O)N2CCCCC2)s1)Nc1ccc(F)cc1F,8.57%
16,CCCC[C@H]1COCCS(=O)(=O)N1Cc1cccc(Cl)c1,6.74%
17,O=c1oc2ccccc2cc1-c1csc(NN=C2CCCC2)n1,10.4%
18,CCOC(=O)CCC(=O)OCC(=O)NC(C)C1CC2CCC1C2 (stereo not drawn),18.1%
19,N#CC1=C(S)N=C(N)C(c2nc(-c3ccccc3)cs2)C12CCCCC2 (stereo not drawn),14.1%

row,SMILES,"hERG current change (%, negative = inhibition) at 1uM"
1,CCCCNC(=O)N1CCc2ccccc2C1,16.9%
2,CN(C)CCNc1c2c(nc3ccccc13)CCC2,10.7%
3,O=c1c(C(c2ccc(Cl)cc2)c2c(O)nc3n(c2=O)CCCS3)c(O)nc2n1CCCS2,15.8%
4,CCN(c1ccccc1)S(=O)(=O)c1cc2c(cc1C)NC(=O)CO2,9.44%
5,CCn1cc(CNC(=O)c2cc(-c3cc(OC)ccc3OC)nc3ccccc23)c(C)n1,-12.5%
6,COc1ccccc1N1CCN(C(=O)c2ccc(Cn3c(=O)[nH]c4ccsc4c3=O)cc2)CC1,8.13%
7,Cc1ccc(NC(=O)CN2C(=O)NC3(CCCC3)C2=O)nc1,5.36%
8,Cc1sc2nc(COC(=O)c3cccc(S(=O)(=O)N(C)c4ccccc4)c3)[nH]c(=O)c2c1C,11.8%
9,O=C(OCC(=O)N1CCCc2ccccc21)c1cccc(C(F)(F)F)c1,4.13%
10,COc1ccc(Cn2c(C3CC3)nc3ccc(NC(C)=O)cc3c2=O)cc1,11.4%
11,COc1ccc(C)cc1NC(=O)c1nnn(Cc2cccc(C(F)(F)F)c2)c1N,16.9%
12,COc1ccccc1N1CCN(C(=O)CCNC(=O)c2ccco2)CC1,9.04%
13,Cc1ccn2c(C(=O)CSc3ccccc3Cl)c(C)nc2c1,12%
14,CCc1ccc(CN2C(=O)c3ccccc3C2C(=O)NC(C)CC)cc1 (stereo not drawn),15.6%
15,O=C(c1ccc2ccccc2c1)C1CCCN(C(=O)c2noc3c2CCCC3)C1 (stereo not drawn),11%
16,Clc1ccc(-c2noc(CCCOc3ccccc3)n2)cc1,9.45%
17,C/C(=N\OC(=O)c1ccc(C)cc1)c1c(C)nc2cc(C)ccn12,13.4%
18,CCOC(=O)c1c(N=CN(C)C)c(C#N)c2n1CCCC2,7.82%
19,CN(C(=O)CC1C(=O)NCCN1Cc1ccc(F)cc1Cl)C1CCCCC1 (stereo not drawn),5.64%

row,SMILES,"hERG current change (%, negative = inhibition) at 1uM"
1,CCOC(=O)c1nn(-c2ccc(F)cc2)c(-c2ccccc2)c1C(=O)c1ccccc1,13.9%
2,Cc1onc(-c2c(F)cccc2Cl)c1C(N)=S,4.06%
3,COc1cc(/C=C/C(=O)O)cc(S(=O)(=O)N2CCN(S(=O)(=O)c3ccc(Cl)cc3)CC2)c1OC,16%
4,Cc1ccc2[nH]c3c(=O)n(CCCN4CCOCC4)cnc3c2c1,-0.039%
5,COc1cccc(-c2cc(C(=O)Nc3ccncc3)c3ccccc3n2)c1,1.47%
6,CCOC(=O)c1[nH]c2ccc(F)cc2c1NC(=O)C1=COCCO1,6.76%
7,CCCc1cc(=O)[nH]c(SCC(=O)NC(=O)NC2CCCC2)n1,9.98%
8,CN(C)c1ccc(N2C(=NC(=O)c3ccccc3)SC3CS(=O)(=O)CC32)cc1 (stereo not drawn),6.02%
9,O=C(Nc1cccc(NC(=O)c2cccs2)c1)c1ccc(F)cc1,12.8%
10,Cc1c(C#N)c(N)nc2c3c(sc12)NC(=O)CC3c1ccc(Cl)cc1 (stereo not drawn),9.23%
11,CCOc1ccc(CCNC(=O)COC(=O)COc2ccc(Cl)cc2)cc1OCC,8.57%
12,NC(=O)NCc1cccs1,13.7%
13,COc1ccc(-c2[nH]ncc2CN2CCN(C3CCCCC3)C(=O)C2)cc1F,9.9%
14,CCN=C(NCC)SC1CC(=O)N(c2ccc(OC)cc2)C1=O (stereo not drawn),6.66%
15,O=C(CSc1ccc(-c2cccs2)nn1)NCCc1ccccc1,1.23%
16,Cn1cnnc1Sc1nc2c(c(=O)n(C)c(=O)n2C)n1C,7.35%
17,CCCOc1ccc(/C(O)=C2\C(=O)C(=O)N(c3ccccn3)C2c2ccccc2F)cc1C (stereo not drawn),3.81%
18,O=C(NC1CCCCC1)C1CCN(C(=O)c2ccc(-c3ccccc3)cc2)CC1,4.3%
19,Cc1cc(NS(=O)(=O)c2ccc(NC(=O)C(C)Oc3ccc(Cl)cc3)cc2)no1 (stereo not drawn),12.5%
